Test results taken from patent publication US8815869B2, “Lactam acetamides as calcium channel blockers” (AbbVie Inc., priority 2010, dated 2014).

target: human Cav2.2 (Homo sapiens, UniProt Q00975); assay: FLIPR assessment of calcium channel activity (Ca2+ influx, IMR32 cells); assay type: cell-based; conditions: IMR32 cells endogenously expressing human Cav2.2; 60 minute pre-incubation; 2 μM nifedipine; depolarized with 80 mM KCl
Description: (i) In Vitro Methods—Assessment of Calcium Channel Activity Using FLIPR
The IMR32 cells were maintained in MEM media containing 10% (v/v) FBS, 1% (v/v) antibiotic/antimitotic, 1% (v/v) sodium pyruvate and 1% (v/v) MEM NEAA. Following dissociation in 0.05% (v/v) trypsin/EDTA, cells were seeded into black 1×96-well plates (Corning Cellbind) at a density of 1-1.2×10^5 cells/well and incubated in the maintenance media above for 48 hours at 37° C. Immediately prior to performing the assay the media was removed and cells were loaded for 1.5 hours with 1× Calcium 4 dye prepared in HBSS (137 mM NaCl, 5.4 mM KCl, 0.25 mM Na2HPO4, 0.44 mM KH2PO4, 1.3 mM CaCl2, 1 mM MgSO4, 4.2 mM NaHCO3) containing HEPES pH 7.4 at room temperature. After dye loading and a subsequent 60 minute pre-incubation with compounds (full log dilutions from 10 μM to 0.1 nM) in the presence of 1.3 mM CaCl2 and 2 μM nifedipine to block endogenous L-type channels, the external Ca^2+ concentration was increased to 5 mM CaCl2 and the cells concomitantly depolarized with 80 mM KCl to assay channel activity. To determine the IC50 values, the percent inhibition of the compound at each concentration was determined relative to the activity in the absence of inhibitor, and data was fitted using non-linear regression sigmoidal dose response curve analysis with GraphPad Prism®.

Row | SMILES | IC50
1 | O=C(CN1CCCC(c2ccccc2)(c2ccccc2)C1=O)N1C[C@@H]2CN[C@@H](C2)C1 (relative stereo) [Example 13, 1-{2-[(1S*,5S*)-3,6-Diazabicyclo[3.2.1]oct-3-yl]-2-oxoethyl}-3,3-diphenylpiperidin-2-one] | 9.78 µM
2 | O=C(CN1CCCC(c2ccccc2)(c2ccccc2)C1=O)NC1CCNCC1 [Example 1, 2-(2-Oxo-3,3-diphenylpiperidin-1-yl)-N-(piperidin-4-yl)acetamide] | > 30 µM
3 | CC1(C)C(=O)NCCN1C(=O)CN1CCCC(c2ccccc2)(c2ccccc2)C1=O [Example 2, 3,3-Dimethyl-4-[(2-oxo-3,3-diphenylpiperidin-1-yl)acetyl]piperazin-2-one] | > 30 µM
4 | O=C(CN1CCCC(c2ccccc2)(c2ccccc2)C1=O)N1C[C@@H]2CCCN[C@@H]2C1 [Example 3, 1-{2-[(4aS,7aS)-Octahydro-6H-pyrrolo[3,4-b]pyridin-6-yl]-2-oxoethyl}-3,3-diphenylpiperidin-2-one] | 10.1 µM
5 | O=C(CN1CCCC(c2ccccc2)(c2ccccc2)C1=O)N1C[C@H]2CCCN[C@H]2C1 [Example 4, 1-{2-[(4aR,7aR)-Octahydro-6H-pyrrolo[3,4-b]pyridin-6-yl]-2-oxoethyl}-3,3-diphenylpiperidin-2-one] | 11.8 µM
6 | O=C(CN1CCCC(c2ccccc2)(c2ccccc2)C1=O)N1CCC[C@H]2CNC[C@H]21 [Example 5, 1-{2-[(4aS,7aS)-Octahydro-1H-pyrrolo[3,4-b]pyridin-1-yl]-2-oxoethyl}-3,3-diphenylpiperidin-2-one] | 13.5 µM
7 | O=C(CN1CCCC(c2ccccc2)(c2ccccc2)C1=O)N1CC2CNCC2C1 (stereo not shown) [Example 6, 1-(2-Hexahydropyrrolo[3,4-c]pyrrol-2(1H)-yl-2-oxoethyl)-3,3-diphenylpiperidin-2-one] | > 30 µM
8 | O=C(CN1CCCC(c2ccccc2)(c2ccccc2)C1=O)N1CC2(CCNCC2)C1 [Example 7, 1-[2-(2,7-Diazaspiro[3.5]non-2-yl)-2-oxoethyl]-3,3-diphenylpiperidin-2-one] | > 30 µM
9 | O=C(CN1CCCC(c2ccccc2)(c2ccccc2)C1=O)NC[C@H]1CCCN1 [Example 8, 2-(2-Oxo-3,3-diphenylpiperidin-1-yl)-N-[(2R)-pyrrolidin-2-ylmethyl]acetamide] | > 9 µM
10 | O=C(CN1CCCC(c2ccccc2)(c2ccccc2)C1=O)NC[C@@H]1CCCN1 [Example 9, 2-(2-Oxo-3,3-diphenylpiperidin-1-yl)-N-[(2S)-pyrrolidin-2-ylmethyl]acetamide] | > 30 µM
11 | O=C1CN(C(=O)CN2CCCC(c3ccccc3)(c3ccccc3)C2=O)CCN1 [Example 10, 4-[(2-Oxo-3,3-diphenylpiperidin-1-yl)acetyl]piperazin-2-one] | > 30 µM
12 | O=C(CN1CCCC(c2ccccc2)(c2ccccc2)C1=O)NC1CNC1 [Example 11, N-Azetidin-3-yl-2-(2-oxo-3,3-diphenylpiperidin-1-yl)acetamide] | > 30 µM
13 | O=C(CN1CCCC(c2ccccc2)(c2ccccc2)C1=O)N1CCNCC1 [Example 12, 1-(2-Oxo-2-piperazin-1-ylethyl)-3,3-diphenylpiperidin-2-one] | 15 µM
14 | O=C(CN1CCC(c2ccc(F)cc2)(c2ccc(F)cc2)C1=O)N1CCNCC1 [Example 14, 3,3-Bis(4-fluorophenyl)-1-(2-oxo-2-piperazin-1-ylethyl)pyrrolidin-2-one] | 9.22 µM
15 | O=C(CN1CCC(c2ccc(F)cc2)(c2ccc(F)cc2)C1=O)N1CCN2CCC[C@@H]2C1 [Example 15, 3,3-Bis(4-fluorophenyl)-1-{2-[(8aR)-hexahydropyrrolo[1,2-a]pyrazin-2(1H)-yl]-2-oxoethyl}pyrrolidin-2-one] | 12.9 µM
16 | O=C(CN1CCC(c2ccc(F)cc2)(c2ccc(F)cc2)C1=O)NC1CNC1 [Example 16, N-Azetidin-3-yl-2-[3,3-bis(4-fluorophenyl)-2-oxopyrrolidin-1-yl]acetamide] | 5.54 µM

More lines, now with the values ahead:

Row | IC50 | SMILES
17 | 12.9 µM | O=C(CN1CCC(c2ccc(F)cc2)(c2ccc(F)cc2)C1=O)N(C1CCNCC1)C1CC1 [Example 17, 2-[3,3-Bis(4-fluorophenyl)-2-oxopyrrolidin-1-yl]-N-cyclopropyl-N-piperidin-4-ylacetamide]
18 | 5.06 µM | O=C(CN1CCC(c2ccc(F)cc2)(c2ccc(F)cc2)C1=O)N(C1CCC1)C1CCNCC1 [Example 18, 2-[3,3-Bis(4-fluorophenyl)-2-oxopyrrolidin-1-yl]-N-cyclobutyl-N-piperidin-4-ylacetamide]
19 | 4.3 µM | O=C(CN1CCC(c2ccc(F)cc2)(c2ccc(F)cc2)C1=O)N(C1CCCC1)C1CCNCC1 [Example 19, 2-[3,3-Bis(4-fluorophenyl)-2-oxopyrrolidin-1-yl]-N-cyclopentyl-N-piperidin-4-ylacetamide]
20 | 13.1 µM | O=C(CN1CCC(c2ccc(F)cc2)(c2ccc(F)cc2)C1=O)N1CC2(CCNCC2)C1 [Example 20, 1-[2-(2,7-Diazaspiro[3.5]non-2-yl)-2-oxoethyl]-3,3-bis(4-fluorophenyl)pyrrolidin-2-one]
21 | 3.86 µM | O=C(CN1CCC(c2ccccc2)(c2ccccc2)C1=O)N1CCN(C2CCCCC2)CC1 [Example 21, 1-[2-(4-Cyclohexylpiperazin-1-yl)-2-oxoethyl]-3,3-diphenylpyrrolidin-2-one]
22 | > 30 µM | CN1CCN(C(=O)CN2CCCC(c3ccccc3)(c3ccccc3)C2=O)CC1 [Example 22, 1-[2-(4-Methylpiperazin-1-yl)-2-oxoethyl]-3,3-diphenylpiperidin-2-one]
23 | 2.96 µM | O=C(CN1CCCC(c2ccc(F)cc2)(c2ccc(F)cc2)C1=O)N1CCNCC1 [Example 23, 3,3-Bis(4-fluorophenyl)-1-(2-oxo-2-piperazin-1-ylethyl)piperidin-2-one]
24 | 16.4 µM | O=C(CN1CCC(c2ccccc2)(c2ccccc2)C1=O)N1CCNCC1 [Example 24, 1-(2-Oxo-2-piperazin-1-ylethyl)-3,3-diphenylpyrrolidin-2-one]
25 | 8.89 µM | O=C(CN1CCC(c2ccc(Cl)cc2)(c2ccc(Cl)cc2)C1=O)N1CCNCC1 [Example 25, 3,3-Bis(4-chlorophenyl)-1-(2-oxo-2-piperazin-1-ylethyl)pyrrolidin-2-one]
